Reference: PubChem BioAssay AID1671194 (National Center for Advancing Translational Sciences (NCATS), 2021)
The campaign covered roughly 140,000 compounds. About 240 (0.17%) were called active. Inconclusive results, whose numbers are uncertain, are shown with a selection of clear calls. Calls come from the whole dose curve; as a rule, active = well fitted inhibition curve with a large enough effect; inconclusive = small, poorly fitted or top-dose-only effect; inactive = no such curve, though single readings can be large or run the other way. Potencies beside an inconclusive call are fits to weak or partial responses and may not hold up.

test: Primary qHTS assay for inhibitors of alpha-synuclein gene (SNCA) expression; settings: HEK-293 SNCA-luciferase knock-in, luminescence, 24 h; activity change, negative = inhibition: at 57.2 µM (top of the series) unless noted; note: nearly all actives have a fitted effect of over 45% in size;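 for activity change, negative = inhibition: plate controls were DMSO cells for no effect and cell-free wells for full effect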
Potency is the fitted concentration of half-maximal effect; tags give direction and shape of the fitted curve.

Potency, inconclusive:
CCCCNc1ncc(C(=O)O)c(CC)n1 2.82 µM [inhibitor, full curve]
COc1nc2c(cc1CNC(=O)c1cnc(C)nc1)C(=O)N(C1CCCC1)C2 5.01 µM [inhibitor, partial curve, poor fit]
Cc1ccc(-c2cc3nccc(-c4cc([N+](=O)[O-])ccc4O)n3n2)cc1 31.6 µM [inhibitor, single point]
O=C(Cc1cccc(Cl)c1)N1CCNc2cnc(Nc3cccc(C(F)(F)F)c3)nc2C1 39.8 µM [inhibitor, single point]
COc1ccc(S(=O)(=O)N2CCN(CC3(O)CCNC3)CC2)cc1 (configuration not stated) 1.41 µM [inhibitor, partial curve, poor fit]
N#Cc1ccc(C(=O)N2CCc3[nH]nc(C(=O)NCCCc4ccccc4)c3C2)cc1 2.82 µM [inhibitor, full curve, poor fit]
Cc1cccc(CN2CCC3(CC2)COCCN3C(=O)OCc2ccccc2)c1 56.2 µM [inhibitor, single point]
COc1ccc(-c2cc3c(ccn3C)c(C(=O)NCCC(N)=O)n2)cc1OC 7.94 µM [inhibitor, partial curve, poor fit]
O=C(CCc1conc1-c1cccc(F)c1)NCc1ccccc1Cl 1.26 µM [inhibitor, full curve, poor fit]
COC(=O)[C@@H]1Cc2ncn(C)c2CN1S(=O)(=O)c1ccc(OC)cc1 56.2 µM [inhibitor, single point]
CC(C)NC(=O)c1nc2cccnc2n(C2CC2)c1=O 1.58 µM [inhibitor, full curve]
c1cc(-c2cc(-c3cn[nH]c3)cn3cncc23)ccn1 3.16 µM [inhibitor, full curve, poor fit]
O[C@]12CCNC[C@H]1CN(Cc1cccc(N3CCOCC3)c1)CC2 1.58 µM [inhibitor, full curve, poor fit]
Cc1cccc(OCC(=O)Nc2ccc3c(c2)nc(CN2CCCCC2)n3C)c1 39.8 µM [inhibitor, single point]
O=S(=O)(c1ccc(-c2csc(=Nc3ccc(F)cc3)n2CCCCCCO)cc1)N1CCCC1 28.2 µM [inhibitor, single point]
CC(C)c1ccc(NC(=O)C2CCCN2S(=O)(=O)c2ccc3nc(-c4ccccc4)[nH]c3c2)cc1 (configuration not stated) 39.8 µM [inhibitor, single point]
Cc1ccc(Cl)cc1N1CCN(S(=O)(=O)c2ccc3c(c2)C(C(C)C)C(=O)N3)CC1 (configuration not stated) 17.8 µM [inhibitor, single point]
CC(=O)Nc1ccc(CN2C(=O)OC3(CCN(Cc4ccc(C(C)C)cc4)CC3)C2(C)c2ccccc2)cc1 (configuration not stated) 22.4 µM [inhibitor, single point]
C[C@H](C(=O)N1CCCC1)C1CC[C@@]2(C)Cc3sc(CS(=O)(=O)c4ccc(Cl)cc4)nc3[C@@H](C)[C@@H]2[C@H]1O (some centres not stated) 10 µM [inhibitor, partial curve, poor fit]
COc1ccc(C2CC(=O)Oc3c2c(=O)n(C)c2ccccc32)c(OC)c1OC (configuration not stated) 7.08 µM [inhibitor, single point]
CCc1cccc(NC(=O)Cn2c(N(C)Cc3ccccc3)nc(C)cc2=O)c1 7.08 µM [inhibitor, partial curve]
Fc1ccc(N2CCN(c3ncnc4c3nc3n4CCCC3)CC2)cc1 3.55 µM [inhibitor, single point]
CCOC(=O)C1CCN(C(=O)c2cc(-c3ccncc3)cn2Cc2ccccc2C)CC1 39.8 µM [inhibitor, single point]
Cc1ccccc1CNC(=O)CCSCc1cnn(-c2ccccc2)c1-n1cccc1 39.8 µM [inhibitor, single point]
CCC(=O)N1c2ccc(S(=O)(=O)N3CCCCCC3)cc2CC1C (configuration not stated) 7.08 µM [inhibitor, single point]
CNCC(=O)N1CCC2(CC1)CN(CCOc1ccccc1)C(=O)O2 0.708 µM [inhibitor, single point]

Activity change, negative = inhibition, inactive:
COC(=O)[C@@H]1Cc2c([nH]c3ccccc23)[C@H]2C[C@@H](NCc3cccnc3)C[C@@H](c3ccc(OC(F)(F)F)cc3)N21 0.167%
COc1ccc(CC2CCOC3(CCN(C(=O)c4ccco4)CC3)C2)cc1 (configuration not stated) -20.1%
O=C(NCCc1ccccn1)c1ccc2nccn2c1 17.3% [at 87.6 µM]
O=C1CCCN1CCCN1C(=O)[C@@H]2C[C@@H](O)CN2C2(CN(Cc3ccccc3Cl)C2)C1=O -15.3%
CCCc1ccc2oc(C(=O)N(C)Cc3snnc3C)c(C)c2c1 14.4%
O=C(CCCc1ccccc1)NCc1nnc2cc(-c3nc(C4CC4)no3)ccn12 13.7%
O=C(NC[C@H]1OC[C@@H](NC2CCC(F)(F)CC2)[C@@H]1O)c1ccccc1 20.8% [at 87.6 µM]
N#Cc1ccc(CN2CCCCCCNC(=O)[C@@H]3C[C@@H](C(=O)N4CCc5ccccc5C4)C[C@@H]32)cc1 -17.5%
CCCCOc1ccc(CN2C[C@@H]3C(=O)N(C)C(=O)[C@@H]3C2)cc1 44.2%
Cc1ccc(-c2ccccc2CN2CCN(C(=O)N(C)C)CC2)cc1Cl -6.88%
Fc1ccc(-c2cnc([C@@H]3COCCN3Cc3cccnc3)[nH]2)c(F)c1 -11.5% [at 87.6 µM]
COC(=O)CNC(=O)C1CN(c2ccc(OC)cc2)C(=O)N1 (configuration not stated) -5.97% [at 87.6 µM]
CS(=O)(=O)N[C@H]1C[C@H]2C(=O)Nc3ccc(-c4cccs4)cc3C(=O)N2C1 17.5% [at 87.6 µM]
Cc1ccc(C2Cn3nnc(-c4nc(-c5cccnc5)no4)c3CO2)c(C)c1 (configuration not stated) -15.1%
CC1(C(=O)Nc2ccncc2)CCCc2cnc(Nc3ccccc3)nc21 (configuration not stated) -15.2% [at 87.6 µM]
Cc1ccncc1C(=O)N1CC(N(C)Cc2cccnc2)C1 90.2%
